From US8633183B2 (priority 2010, dated 2014)
Like-named read-outs stand apart in the source and are kept apart here.

System: PC3 (human prostate carcinoma cell line) cells
Assay: cells
[1] = PC-3, 72 h, read-out: EC50 PC3 [nM]

SMILES | EC50 [1] | EC50 (read-out: EC50 PC3)
Cc1ncnc(-c2ccc(N3CCCCC3)nc2)c1C#Cc1ccc(N)nc1 [Example C-25] | 407 nM | –
CCc1ncnc(-c2ccc(C(=O)N3CCN(C(C)=O)CC3)c(OC)c2)c1C#Cc1ccc(N)nc1 [Example D-56] | – | 115 nM
CCc1ncnc(-c2ccc(C(=O)N3CCC[C@@H]3CO)c(F)c2)c1C#Cc1ccc(N)nc1 [Example D-131] | – | 57 nM
CCc1ncnc(-c2ccc(C(=O)NC3CC(C)(C)NC(C)(C)C3)c(F)c2)c1C#Cc1ccc(N)nc1 [Example D-213] | – | 132 nM
CCc1ncnc(-c2ccc(C(=O)N(C)C3CCS(=O)(=O)C3)c(F)c2)c1C#Cc1ccc(N)nc1 [Example D-216] | – | 42 nM
CCc1ncnc(-c2ccc(C(=O)N3CC(O)CO3)c(F)c2)c1C#Cc1ccc(N)nc1 [Example D-220] | – | 65 nM
CCc1ncnc(-c2ccc(C(=O)NC3CCCN(C4CCN(C)CC4)C3)c(F)c2)c1C#Cc1ccc(N)nc1 [Example D-205] | – | 308 nM
CCc1ncnc(-c2ccc(C(=O)N3CCC[C@H]3CO)c(F)c2)c1C#Cc1ccc(N)nc1 [Example D-135] | – | 122 nM
CCc1ncnc(-c2ccc(C(=O)N3CCN(/C(=N\C#N)NC)CC3)c(F)c2)c1C#Cc1ccc(N)nc1 [Example D-117] | – | 244 nM
CCc1ncnc(-c2ccc(C(C)(C)C#N)cc2)c1C#Cc1ccc(N)nc1 [Example C-1] | 49 nM | –
CCc1ncnc(-c2ccc(C(=O)N3CCN(Cc4ccccc4)CC3)c(F)c2)c1C#Cc1ccc(N)nc1 [Example D-97] | – | 151 nM
CCc1ncnc(-c2ccc(C(=O)N3CCN(C(C)=O)CC3)c(F)c2)c1C#Cc1ccc(N)nc1C [Example D-82] | – | 50 nM
CCc1ncnc(-c2ccc(C(=O)N3CCN(CC4CCCO4)CC3)c(F)c2)c1C#Cc1ccc(N)nc1 [Example D-88] | – | 68 nM
CCc1ncnc(-c2ccc(C(=O)N3CCC(N4CCN(C)CC4)CC3)c(OC)c2)c1C#Cc1ccc(N)nc1 [Example D-163] | – | 293 nM
CCc1ncnc(-c2ccc(C(=O)N3CCN(C(C)C)CC3)c(Cl)c2)c1C#Cc1ccc(N)nc1 [Example D-42] | – | 16 nM
CCc1ncnc(-c2ccc(C(=O)N3CCC(O)(C(F)(F)F)CC3)c(F)c2)c1C#Cc1ccc(N)nc1 [Example D-123] | – | 76 nM
CCc1ncnc(-c2ccc(C(=O)NCCN3CCOCC3)c(F)c2)c1C#Cc1ccc(N)nc1 [Example D-217] | – | 97 nM
CCc1ncnc(-c2ccc(C(=O)N(C)CCCO)c(F)c2)c1C#Cc1ccc(N)nc1 [Example D-4] | – | 33 nM
CCc1ncnc(-c2ccc(S(C)(=O)=O)cc2)c1C#Cc1ccc(N)nc1 [Example C-14] | 100 nM | –
CCc1ncnc(-c2ccc(C(=O)N(C)CCCN(C)C)c(F)c2)c1C#Cc1ccc(N)nc1 [Example D-9] | – | 140 nM
CCc1ncnc(-c2ccc(C(=O)N3CCN(C(CC)CC)CC3)c(F)c2)c1C#Cc1ccc(N)nc1 [Example D-130] | – | 45 nM
Cc1ncnc(-c2ccc(F)c(C(=O)N(C)C)c2)c1C#Cc1ccc(N)nc1 [Example C-9] | 275 nM | –
CCc1ncnc(-c2ccc(F)c(C(=O)N(C)C)c2)c1C#Cc1ccc(N)nc1 [Example C-15] | 142 nM | –
CCc1ncnc(-c2ccc(C(=O)N(C)CCOC)c(Cl)c2)c1C#Cc1ccc(N)nc1 [Example D-35] | – | 35 nM
CCc1ncnc(-c2ccc(C(=O)N3CCN(C4CCCC4)CC3)c(F)c2)c1C#Cc1ccc(N)nc1 [Example D-96] | – | 63 nM
CCc1ncnc(-c2ccc(C(=O)N3CCC(C4CCN(C)CC4)CC3)c(Cl)c2)c1C#Cc1ccc(N)nc1 [Example D-139] | – | 146 nM

SMILES | EC50 [1] | EC50 (read-out: EC50 PC3)
Cc1ncnc(-c2ccc(C(F)(F)F)nc2)c1C#Cc1ccc(N)nc1 [Example C-21] | 265 nM | –
CCc1ncnc(-c2ccc(C(=O)N3CCC(O)(c4ccccc4)CC3)c(F)c2)c1C#Cc1ccc(N)nc1 [Example D-126] | – | 144 nM
CCc1ncnc(-c2ccc(C(=O)N3CCC(N(C)C)CC3)c(F)c2)c1C#Cc1ccc(N)nc1 [Example D-100] | – | 44 nM
CCc1ncnc(-c2ccc(C(=O)N3CCCO3)c(OC)c2)c1C#Cc1ccc(N)nc1 [Example D-168] | – | 105 nM
CCc1ncnc(-c2cc(C)nc(C)c2)c1C#Cc1ccc(N)nc1 [Example C-4] | 60 nM | –
CCc1ncnc(-c2ccc(C(=O)N3CCCCC3)c(F)c2)c1C#Cc1ccc(N)nc1C [Example D-10] | – | 42 nM
CCc1ncnc(-c2ccc(C(=O)N3CCN(C4CCOCC4)CC3)c(Cl)c2)c1C#Cc1ccc(N)nc1 [Example D-31] | – | 23 nM
Cc1ncnc(-c2ccc(C(C)(C)C#N)cc2)c1C#Cc1ccc(N)nc1 [Example C-2] | 85 nM | –
CCc1ncnc(-c2ccc(C(=O)N3CCC(N4CCC(C)CC4)C3)c(F)c2)c1C#Cc1ccc(N)nc1 [Example D-108] | – | 41 nM
CCc1ncnc(-c2ccc(C(=O)N3CCN(CCN(C)C)CC3)c(OC)c2)c1C#Cc1ccc(N)nc1 [Example D-60] | – | 480 nM
CCc1ncnc(-c2ccc(C(=O)N3CCC(N4CCCC4)CC3)c(F)c2)c1C#Cc1ccc(N)nc1 [Example D-112] | – | 61 nM
CCc1ncnc(-c2ccc(C(=O)N3CCN(C4CCS(=O)(=O)C4)CC3)c(OC)c2)c1C#Cc1ccc(N)nc1 [Example D-172] | – | 392 nM
Cc1ncnc(-c2cccc(C(=O)N(C)C)c2)c1C#Cc1ccc(N)nc1 [Example C-10] | 134 nM | –
CCc1ncnc(-c2ccc(C(=O)N3CC[C@H](O)C3)c(Cl)c2)c1C#Cc1ccc(N)nc1 [Example D-145] | – | 76 nM
CCc1ncnc(-c2ccc(C(=O)N3CC[S+]([O-])CC3)c(Cl)c2)c1C#Cc1ccc(N)nc1 [Example D-141] | – | 39 nM
Cc1ccc(-c2ncnc(C)c2C#Cc2ccc(N)nc2)cn1 [Example C-24] | 153 nM | –
Cc1cc(-c2ncnc(C)c2C#Cc2ccc(N)nc2)ccn1 [Example C-20] | 191 nM | –
CCc1ncnc(-c2ccc(C(=O)N3CC[C@H](O)C3)c(F)c2)c1C#Cc1ccc(N)nc1 [Example D-203] | – | 58 nM
CCc1ncnc(-c2ccc(C(=O)NCCN3CCOCC3)c(OC)c2)c1C#Cc1ccc(N)nc1 [Example D-182] | – | 180 nM
Cc1ncnc(-c2cccc(C(=O)N3CCOCC3)c2)c1C#Cc1ccc(N)nc1 [Example C-37] | 644 nM | –
CCc1ncnc(-c2ccc(C(=O)N3CCN(c4ccccn4)CC3)c(Cl)c2)c1C#Cc1ccc(N)nc1 [Example D-37] | – | 38 nM
CCc1ncnc(-c2ccc(C(=O)N3CCN(C4CCS(=O)(=O)C4)CC3)c(F)c2)c1C#Cc1ccc(N)nc1C [Example D-17] | – | 76 nM
CCc1ncnc(-c2ccc(C(=O)N3CCC(N4CCN(C)CC4)CC3)c(F)c2)c1C#Cc1ccc(N)nc1 [Example D-62] | – | 56 nM
Cc1ncnc(-c2ccc(C(=O)N3CCN(c4ccccc4)CC3)cc2)c1C#Cc1ccc(N)nc1 [Example D-188] | – | 62 nM
CCc1ncnc(-c2ccc(C(=O)NC3CCCN(C)C3)c(Cl)c2)c1C#Cc1ccc(N)nc1 [Example D-140] | – | 221 nM
CCc1ncnc(-c2ccc(C(=O)N3CCN(c4ccncc4)CC3)c(Cl)c2)c1C#Cc1ccc(N)nc1 [Example D-155] | – | 64 nM

SMILES | EC50 [1] | EC50 (read-out: EC50 PC3)
Cc1ncnc(-c2ccc(C(=O)N3CCN4CCCCC4C3)cc2)c1C#Cc1ccc(N)nc1 [Example D-191] | – | 55 nM
CCc1ncnc(-c2cccc(C(=O)NC)c2)c1C#Cc1ccc(N)nc1 [Example C-50] | 212 nM | –
CCc1ncnc(-c2ccnc(OC)c2)c1C#Cc1ccc(N)nc1 [Example C-33] | 106 nM | –
CCc1ncnc(-c2cnc3ccccc3c2)c1C#Cc1ccc(N)nc1 [Example C-29] | 123 nM | –
CCc1ncnc(-c2ccc(C(=O)N3CC(C)NC(C)C3)c(F)c2)c1C#Cc1ccc(N)nc1 [Example D-132] | – | 98 nM
CCc1ncnc(-c2ccc(C(=O)N3CCN(C4CCS(=O)(=O)C4)CC3)c(Cl)c2)c1C#Cc1ccc(N)nc1 [Example D-32] | – | 38 nM
CCc1ncnc(-c2ccc(C(=O)N3CCC(C)(O)CC3)c(Cl)c2)c1C#Cc1ccc(N)nc1 [Example D-143] | – | 76 nM
CCc1ncnc(-c2ccc(C(=O)N3CC[C@@H](O)C3)c(F)c2)c1C#Cc1ccc(N)nc1 [Example D-204] | – | 53 nM
CCc1ncnc(-c2ccc(C(=O)N3CCN(C(C)CC)CC3)c(F)c2)c1C#Cc1ccc(N)nc1 [Example D-129] | – | 30 nM
CCc1ncnc(-c2ccc(C(=O)N3CCN(CC4CCCO4)CC3)c(F)c2)c1C#Cc1ccc(N)nc1C [Example D-16] | – | 67 nM
CCc1ncnc(-c2ccc(C(=O)N3CCN(CCO)CC3)c(OC)c2)c1C#Cc1ccc(N)nc1 [Example D-57] | – | 357 nM
CCc1ncnc(-c2ccc(C(=O)N3CCN(CC(=O)N(C)C)CC3)c(F)c2)c1C#Cc1ccc(N)nc1 [Example D-85] | – | 56 nM
CCc1ncnc(-c2ccc(C(=O)N(C)CC3CCN(C)CC3)c(F)c2)c1C#Cc1ccc(N)nc1 [Example D-76] | – | 93 nM
CCc1ncnc(-c2ccc(C(=O)N3CCOCC3)c(F)c2)c1C#Cc1ccc(N)nc1 [Example D-239] | – | 53 nM
Cc1ncnc(-c2ccccc2)c1C#Cc1ccc(N)nc1 [Example C-7] | 163 nM | –
CCc1ncnc(-c2ccc(Cl)c(C(=O)N3CCCCC3)c2)c1C#Cc1ccc(N)nc1 [Example C-48] | 747 nM | –
CCc1ncnc(-c2ccc(C(=O)NCC3CCN(C)C3)c(F)c2)c1C#Cc1ccc(N)nc1 [Example D-75] | – | 147 nM
CCc1ncnc(-c2ccc(C(=O)N3CCC(O)(CN(C)C)CC3)c(F)c2)c1C#Cc1ccc(N)nc1 [Example D-103] | – | 58 nM
CCc1ncnc(-c2ccc(C(=O)N3CCN(CCOC)CC3)c(F)c2)c1C#Cc1ccc(N)nc1 [Example D-95] | – | 40 nM
CCc1ncnc(-c2ccc(C(=O)N3CCCN(C)CC3)c(F)c2)c1C#Cc1ccc(N)nc1 [Example D-118] | – | 48 nM
CCc1ncnc(-c2ccc(C(=O)N3CCN(CCO)CC3)c(Cl)c2)c1C#Cc1ccc(N)nc1 [Example D-36] | – | 41 nM
CCc1ncnc(-c2ccc(C(=O)N(C)C)cc2)c1C#Cc1ccc(C)nc1 [Example C-18] | 612 nM | –
CCc1ncnc(-c2ccc(F)c(C(=O)N3CCOCC3)c2)c1C#Cc1ccc(N)nc1 [Example C-46] | 228 nM | –
CCc1ncnc(-c2ccc(C(=O)N3CCN(CC4CCCN(C)C4)CC3)c(F)c2)c1C#Cc1ccc(N)nc1 [Example D-114] | – | 39 nM
